Measured values as given in US20250082589A1, “PHENYLETHYLIDENEHYDRAZINE DIMERS AND METHODS OF USING SAME” (NEURAWELL THERAPEUTICS, priority 2021, published 2025).

Method: Batch 1830-012. UPLC chromatograms for sample 1830-012 were measured in ACN or MeOH directly after preparation. The UPLC method parameters were the same as those for PEH. FIG. 1A-C are chromatograms of sample 1830-012 obtained at different points in the reaction. FIG. 1A, top panel, is the chromatogram obtained at time “0,” and confirms the presence of PEH and the azine at [M+H]^+ 135.6 and 237.7, respectively. As the reaction proceeds, the growth of the peak corresponding to the azine increases until 35 min. FIG. 1B is the chromatogram obtained in ACN after extraction (top panel) and after drying with potassium carbonate (middle panel). In both chromatograms, the signal due to the azine decreased and peak broadening was observed. FIG. 1B, bottom panel, is the chromatogram after drying, in which the signal due to PEH decreased. The chromatograms in FIG. 1C of the resultant species were obtained after 3 days storage at room temperature and −20° C. […]
Batch 1830-007. […] The results for Fr1 after distillation are shown in FIG. 17C and FIG. 17D, with the NMR results being measured at a maximum of 40 min after distillation. PEH was detected at 26% purity, and the azine was detected at 11% purity. The results for Fr2 after distillation are shown in FIG. 17E and FIG. 17F, with the NMR results being measured at a maximum of 40 min after distillation.

SMILES	stability on distillation
NN=CCc1ccccc1 [PEH, phenylethylidenehydrazine]	underwent decomposition at 160-170 °C
C(/Cc1ccccc1)=N\N=C\Cc1ccccc1 [azine, (1E,2E)-1,2-bis(2-phenylethylidene)hydrazine]	underwent decomposition at 160-170 °C
